Experimental data published in the CheMixHub viscosity set.
The source gives many values for each of these; only a part stands here.

Assay: xn = mol fraction of the nth substance listed

Cc1cccc(C)n1 + O
viscosity [mPa·s], 101.33 kPa
Conditions	300.12 K	303.12 K	306.99 K
x1 = 0.0182	–	–	1.03
x1 = 0.0406	1.778	1.657	1.546
x1 = 0.04497	1.79	1.675	1.572
x1 = 0.04989	2.015	1.876	1.841
x1 = 0.05536	2.15	2.002	2.072
x1 = 0.06006	2.261	2.103	2.284
x1 = 0.06724	2.42	2.245	2.413
x1 = 0.07288	2.553	2.362	2.467
x1 = 0.07938	2.996	2.737	2.516
x1 = 0.08016	2.697	2.491	2.458
x1 = 0.08937	2.865	2.651	2.495
x1 = 0.1447	3.699	3.318	2.942
x1 = 0.2014	4.206	3.739	3.245
x1 = 0.2793	4.344	3.853	3.345
x1 = 0.3794	3.885	3.503	3.091
x1 = 0.5786	2.31	2.112	1.93

O=S1(=O)CCCC1 + O
viscosity [mPa·s], 101 kPa
Conditions	303.15 K	308.15 K	313.15 K	318.15 K	323.15 K
x1 = 0.02074	–	–	0.756	–	0.631
x1 = 0.04649	–	–	0.886	–	0.735
x1 = 0.04934	1.125	1.013	0.9177	0.8357	0.7662
x1 = 0.07703	1.302	–	1.037	–	0.865
x1 = 0.1001	1.466	1.315	1.185	1.075	0.9827
x1 = 0.1147	1.55	–	1.241	–	1.032
x1 = 0.1504	1.813	1.625	1.458	1.318	1.201
x1 = 0.1615	1.9	–	1.528	–	1.261
x1 = 0.2013	2.17	1.93	1.734	1.565	1.422
x1 = 0.2247	2.33	–	1.852	–	1.5
x1 = 0.2496	2.503	2.23	1.997	1.799	1.629
x1 = 0.2978	2.839	2.522	2.257	2.031	1.84
x1 = 0.3102	2.984	–	2.393	–	1.931
x1 = 0.352	3.176	2.824	2.527	2.274	2.053
x1 = 0.4013	3.504	3.105	2.769	2.491	2.252
x1 = 0.4328	3.778	–	2.956	–	2.379
x1 = 0.4524	3.828	3.397	3.038	2.726	2.462
x1 = 0.5025	4.146	3.687	3.293	2.955	2.662
x1 = 0.5496	4.48	3.976	3.546	3.193	2.88
x1 = 0.602	4.842	4.297	3.833	3.448	3.108
x1 = 0.6323	5.085	–	3.996	–	3.256
x1 = 0.6508	5.205	4.625	4.115	3.703	3.337
x1 = 0.7007	5.62	4.98	4.461	4.005	3.612
x1 = 0.7523	6.089	5.397	4.813	4.32	3.895
x1 = 0.7807	6.049	–	4.805	–	3.964
x1 = 0.8022	6.614	5.867	5.228	4.691	4.225
x1 = 0.8526	7.228	6.406	5.72	5.069	4.607
x1 = 0.8985	7.921	7	6.224	5.577	5.008
x1 = 0.9511	8.898	7.827	6.928	6.186	5.536
